{
  "source": "PubChem BioAssay (NCATS)",
  "key": {"[1]": {"assay": "qHTS drug screen for cell cycle checkpoint inhibitors in PARPi-resistant BRCA-mutant ovarian cancer cell lines. (AID 1963452)", "settings": "PEO1/OlaR viability, CellTiter-Glo luminescence, 96 h", "summary_of_the_method": "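PEO1, PEO4 and PEO1/OlaR ovarian cancer cells, 600 per well, exposed 96 h at 37C to a dilution series. Viability read by CellTiter-Glo luminescence, normalized to DMSO and empty wells; activity summarized as Z-AUC.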"}, "[2]": {"assay": "S16 Schwann cell PMP22 intronic element beta-lactamase assay (AID 624044); on all read-outs here: nearly all actives have a fitted effect of over 15% in size", "settings": "S16 rat Schwann cells, PMP22 element beta-lactamase FRET, 24 h", "summary_of_the_method": "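Rat S16 Schwann cells with beta-Lac driven by a PMP22 intronic element, compound-treated 24 h at 37 °C. LiveBLAzer FRET B/G read: 460 nm normalized to potassium clavulanate vs DMSO; 535 nm FRET as viability; concentration-effect curves classified.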"}, "[3]": {"assay": "qHTS Validation Assay to Find Inhibitors of Chronic Active B-Cell Receptor Signaling (AID 485345)", "settings": "ABC-DLBCL cells, chronic BCR signaling reporter", "summary_of_the_method": "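TMD8 ABC-DLBCL cells with dox-inducible green luciferase–IκBα fusion and red native luciferase; compounds 46 uM–3 nM, 4 h at 37C with doxycycline in 0.5% FBS IMDM. Green/red ratio normalized to basal and 10 uM MG-132.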"}, "[4]": {"assay": "Nrf2 qHTS screen for inhibitors: Validation (AID 493153)", "settings": "A549 ARE-Fluc reporter, 18-24 h; AC50: CellTiter-Fluor fluorescence read, measured here: cytotoxicity CellTiter-Fluor AC50; viability change: measured here: cytotoxicity max response", "summary_of_the_method": "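Dose-response validation uses reporter A549 cells with firefly luciferase under an antioxidant response element. Compounds stay on cells 18-24 h at 37°C, and luminescence indicates Nrf2-driven transcription.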"}, "[5]": {"assay": "qHTS for identification of novel therapeutic agents for treatment of microphthalmiaassociated transcription factor (MiT) renal cell carcinoma (RCC) (AID 1963991)", "settings": "CellTiter-Glo, 48 h; for z-score: stronger effect = lower value", "summary_of_the_method": "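Three TFE3-fusion RCC cell lines (UOK109, UOK124, UOK145), 500 cells/well, were exposed to the 1912-compound MIPE 4.0 library for 48 hours at 37 C. Viability was read by CellTiter-Glo luminescence, normalised to DMSO (100%) and empty wells (0%), with 11-concentration curve fits.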"}, "[6]": {"settings": "measured here: PEO1 parental viability"}, "[7]": {"settings": "TFE3-RCC UOK109 viability, measured here: UOK109 Z-AUC"}, "[8]": {"settings": "TFE3-RCC viability, measured here: UOK124 Z-AUC"}, "[9]": {"settings": "TFE3-RCC viability, measured here: UOK124 cell viability"}, "[10]": {"settings": "TFE3-RCC viability, measured here: UOK145 Z-AUC"}, "[11]": {"settings": "TFE3-RCC viability, measured here: UOK145 cell viability"}},
  "note": "“And” between values parts separate entries of the source, which are not always exact repeats. Equal entries are not always repeated. This is one part of the list. Further columns of the screen follow, without active or inactive calls. For some assays here: Most of these compounds were active or inconclusive in the main read-out, so they are no random draw. The note in brackets gives the kind of curve behind each potency; many fits are weak. Tags describe the fitted curve by direction and shape.",
  "data": [
    {"smiles": "CCCCCCC(C)(C)c1cc(O)c2c(c1)OC(C)(C)C1CC=C(CO)C[C@H]21", "note": "(some centres not stated)", "values": [
      {"measurement": "AC50", "setting": "[1]; [6]", "value": "24.5 µM [falling, single point]"},
      {"measurement": "AC50", "setting": "[1]; measured here: PEO4 viability", "value": "15.5 µM [falling, single point]"}
    ]},
    {"smiles": "C/C(=C\\c1csc(C)n1)[C@@H]1C[C@@H]2O[C@]2(C)CCC[C@H](C)[C@H](O)[C@@H](C)C(=O)C(C)(C)[C@@H](O)CC(=O)O1", "values": [
      {"measurement": "AC50", "setting": "[2]; measured here: 460 nm blue channel", "value": "9.99 µM [falling, full curve, poor fit]"},
      {"measurement": "AC50", "setting": "[2]; measured here: 530 nm viability channel", "value": "28.2 µM [falling, single point]"},
      {"measurement": "AC50", "setting": "[1]; [6]", "value": "0.0098 µM [falling, full curve]"},
      {"measurement": "AC50", "setting": "[1]; measured here: PEO4 viability", "value": "0.0055 µM [falling, full curve, poor fit]"}
    ]},
    {"smiles": "C[C@@H]1CC[C@@]2(OC1)O[C@H]1C[C@H]3[C@@H]4CC=C5C[C@@H](O[C@@H]6O[C@H](CO)[C@@H](O[C@@H]7O[C@@H](C)[C@H](O)[C@@H](O)[C@H]7O)[C@H](O)[C@H]6O[C@@H]6O[C@@H](C)[C@H](O)[C@@H](O)[C@H]6O)CC[C@]5(C)[C@H]4CC[C@]3(C)[C@H]1[C@@H]2C", "values": [
      {"measurement": "AC50", "setting": "[1]; [6]", "value": "3.89 µM [falling, full curve]"},
      {"measurement": "AC50", "setting": "[1]; measured here: PEO4 viability", "value": "3.89 µM [falling, full curve]"}
    ]},
    {"smiles": "COc1cc2c(cc1F)C(c1ccccc1Cl)=Nc1c(n[nH]c1C)N2", "values": [
      {"measurement": "AC50", "setting": "[1]; [6]", "value": "21.9 µM [falling, single point]"},
      {"measurement": "AC50", "setting": "[1]; measured here: PEO4 viability", "value": "27.5 µM [falling, single point]"}
    ]},
    {"smiles": "C/C=C(/C)C(=O)O[C@H]1C(C)=C2[C@H]([C@@H]1OC(=O)CCCCCCC)[C@@](C)(OC(C)=O)C[C@H](OC(=O)CCC)[C@@]1(O)[C@H]2OC(=O)[C@@]1(C)O", "values": [
      {"measurement": "AC50", "setting": "[3]; measured here: CBG/CBR ratio read-out", "value": "14.6 µM [falling, partial curve]"},
      {"measurement": "AC50", "setting": "[3]; measured here: CBR control luciferase (viability counter)", "value": "18.4 µM [falling, single point]"},
      {"measurement": "AC50", "setting": "[4]", "value": "0.082 µM [falling, full curve]"},
      {"measurement": "viability change", "setting": "[4]", "value": -50.7, "unit": "%"},
      {"measurement": "AC50", "setting": "[1]; [6]", "value": "0.0078 µM [falling, full curve]"},
      {"measurement": "AC50", "setting": "[1]; measured here: PEO4 viability", "value": "0.0069 µM [falling, full curve]"}
    ]},
    {"smiles": "Cc1sc2c(c1C)C(c1ccc(Cl)cc1)=N[C@@H](CC(N)=O)c1nnc(C)n1-2", "values": [
      {"measurement": "AC50", "setting": "[1]; [6]", "value": "549 nM [falling, full curve] and 490 nM [falling, full curve]"},
      {"measurement": "AC50", "setting": "[1]; measured here: PEO4 viability", "value": "110 nM [falling, full curve] and 871 nM [falling, full curve]"}
    ]},
    {"smiles": "N=c1c2c(-c3ccccc3)c(-c3ccccc3)n(Cc3ccccc3)c2ncn1C1CCC(O)CC1", "note": "(configuration not stated)", "values": [
      {"measurement": "AC50", "setting": "[1]; [6]", "value": "15.5 µM [falling, partial curve]"},
      {"measurement": "AC50", "setting": "[1]; measured here: PEO4 viability", "value": "4.36 µM [falling, partial curve]"},
      {"measurement": "z-score", "setting": "[5]; [7]", "value": -1.62},
      {"measurement": "z-score", "setting": "[5]; [8]", "value": -0.0707},
      {"measurement": "AC50", "setting": "[5]; [9]", "value": "23.5 µM [falling, partial curve, poor fit]"},
      {"measurement": "z-score", "setting": "[5]; [10]", "value": -0.605},
      {"measurement": "AC50", "setting": "[5]; [11]", "value": "0.332 µM [falling, full curve]"}
    ]},
    {"smiles": "COc1ccc(C(=O)c2c(C)n(CCN3CCOCC3)c3ccccc23)cc1", "values": [
      {"measurement": "AC50", "setting": "[1]; [6]", "value": "15.5 µM [falling, partial curve]"},
      {"measurement": "AC50", "setting": "[1]; measured here: PEO4 viability", "value": "7.76 µM [falling, partial curve]"}
    ]},
    {"smiles": "O=C(O)C(=O)c1cn(Cc2ccccc2)c2ccc(-c3ccc(OC(F)(F)F)cc3)cc12", "values": [
      {"measurement": "AC50", "setting": "[1]; [6]", "value": "27.5 µM [falling, single point]"},
      {"measurement": "z-score", "setting": "[5]; [7]", "value": 0.669},
      {"measurement": "z-score", "setting": "[5]; [8]", "value": 0.25},
      {"measurement": "AC50", "setting": "[5]; [9]", "value": "6.62 µM [falling, partial curve, poor fit]"},
      {"measurement": "z-score", "setting": "[5]; [10]", "value": 0.729}
    ]},
    {"smiles": "CO[C@H]1CCC(O[C@H]2C[C@H]([C@]3(C)CC[C@]4(C[C@H](O)[C@@H](C)[C@@H]([C@@H](C)/C=C(\\C)C(=O)[C@H](C)C[C@H](C)C(=O)O)O4)O3)O[C@]3(O[C@@H]([C@H]4O[C@@](O)(CO)[C@H](C)C[C@@H]4C)C[C@@H]3C)[C@@H]2C)O[C@@H]1C", "note": "(some centres not stated)", "values": [
      {"measurement": "AC50", "setting": "[1]; [6]", "value": "1.38 µM [falling, full curve]"},
      {"measurement": "AC50", "setting": "[1]; measured here: PEO4 viability", "value": "0.436 µM [falling, full curve]"}
    ]},
    {"smiles": "COc1ccc(N(C(=O)Oc2c(C)cccc2C)c2ccnc(Nc3ccc(N4CCN(C)CC4)cc3)n2)c(OC)c1", "values": [
      {"measurement": "AC50", "setting": "[1]; [6]", "value": "3.47 µM [falling, single point]"},
      {"measurement": "z-score", "setting": "[5]; [7]", "value": -0.223},
      {"measurement": "z-score", "setting": "[5]; [8]", "value": -0.229},
      {"measurement": "AC50", "setting": "[5]; [9]", "value": "1.66 µM [falling, partial curve, poor fit]"},
      {"measurement": "z-score", "setting": "[5]; [10]", "value": -0.62},
      {"measurement": "AC50", "setting": "[5]; [11]", "value": "3.72 µM [falling, partial curve]"}
    ]},
    {"smiles": "CCOC(=O)Nc1ccc(NCc2ccc(F)cc2)cc1N", "values": [
      {"measurement": "z-score", "setting": "[5]; [7]", "value": -0.119},
      {"measurement": "z-score", "setting": "[5]; [8]", "value": 0.84},
      {"measurement": "z-score", "setting": "[5]; [10]", "value": 0.157},
      {"measurement": "AC50", "setting": "[5]; [11]", "value": "26.4 µM [falling, partial curve, poor fit]"}
    ]},
    {"smiles": "O=C(O)CNC(=O)c1c(O)c2ccccc2n(Cc2ccccc2)c1=O", "values": [
      {"measurement": "z-score", "setting": "[5]; [7]", "value": 0.463},
      {"measurement": "z-score", "setting": "[5]; [8]", "value": 0.475},
      {"measurement": "z-score", "setting": "[5]; [10]", "value": 0.634}
    ]}
  ]
}
